This is one part of the list. Further columns of the screen follow, without active or inactive calls. The list favours compounds with an active or inconclusive main result. Potencies come from curve fits of mixed quality, noted in brackets.
Experiment: qHTS Assay for Lipid Storage Modulators (AID 1519)
Conditions: Drosophila S3 cells, BODIPY lipid droplet/cell ratio, laser cytometry; measured here: lipid (BODIPY) channel AC50; cells loaded with oleic acid
In short: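 Cells seeded at 5,000 per well were treated with compounds over a concentration series and loaded with oleic acid (400 uM, as added). Lipid droplet fluorescence (488 nm excitation, 500-530 nm channel) was read by laser-scanning cytometry and normalized to 20 uM Triacsin C.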
For C=C1C(=O)OC2C[C@@]3(C)CCCC(=C)[C@@H]3CC12 (some centres not stated), the AC50 was 12.6 µM [rising, full curve]. For COc1ncc2nc(-c3cc(F)cc(F)c3)c(=O)n(C[C@H]3CCCO3)c2n1, the AC50 was 0.0562 µM [rising, full curve, poor fit]. In the case of Cc1noc(C)c1-c1ccc2ncnc(NCc3cccs3)c2c1, the AC50 is reported as 4.47 µM [rising, partial curve]. In the case of COc1ccc(C(=O)N2CCC3(CCN(C(=O)Nc4ccccc4)CC3)CC2)cc1, the AC50 is reported as 0.794 µM [rising, full curve]. With COc1ccc(CNc2ccnc(-c3ccc(N(C)C)cc3)n2)c(OC)c1 the AC50 was 1.78 µM [rising, full curve]. With CN(C)C(=O)c1ccc(-c2ccc3ncnc(NCCN4CCOCC4)c3c2)cc1 the AC50 was 3.98 µM [rising, full curve]. In the case of OCCNCCCOc1cccc(Cl)c1Cl, the AC50 is reported as 5.01 µM [falling, partial curve, poor fit].

Same assay, conditions: Drosophila S3 cells, BODIPY lipid droplet/cell ratio, laser cytometry; measured here: lipid channel max response; cells loaded with oleic acid
Compound COc1ccc2[nH]c(-c3ccccc3)c(CCNC(C)=O)c2c1 has a max response of 135%. Compound COc1ccccc1CNc1ccnc(-c2c(C)noc2C)n1 has a max response of 24%. With C=CC(C1=CC(=O)C(OC)=C(OC)C1=O)c1ccccc1 (configuration not stated) the max response was -91.9%. Compound c1cncc(-c2cc(NCc3cccs3)ncn2)c1 has a max response of 44.8%. O=C(c1cnccn1)N1CCC[C@@]2(CCN(Cc3ccncc3)C2)C1 showed a max response of 29.8%. C=C1C(=O)O[C@@H]2C3OC3(C)CC/C=C(\C)CC[C@@H]12 (some centres not stated) showed a max response of 76.9%. Work on CCNc1ncc2nc(CCc3ccccc3)c(=O)n(Cc3cccc(OC)c3)c2n1 yielded a max response of 24.5%. CN1CCN(c2ncnc3ccc(-c4cccnc4)cc23)CC1 gave a max response of 31.3%. For Cn1cc(-c2nc3cncnc3n(Cc3ccccc3Cl)c2=O)c2ccccc21, the max response was 63.7%. With O=c1[nH]c2cc(Cl)ccc2c(O)c1-c1cccc(Oc2ccccc2)c1 the max response was 95.8%. With COc1ccc(-c2coc3ccc(OC4OC(COC(C)=O)C(OC(C)=O)C(OC(C)=O)C4OC(C)=O)c(OC(C)=O)c3c2=O)cc1 (configuration not stated) the max response was 50.2%. For Cc1ccccc1-c1cc(NCc2cccnc2)ncn1, the max response was 43.7%. N#Cc1ccc(CN2CC3(CCN(C(=O)c4csnn4)CC3)C2)cc1 gave a max response of 48.3%. For Cn1ccc2cc(NC(=O)Nc3cccnc3)ccc21, the max response was 155%. In the case of CNc1cc(OC)c(C(=O)N[C@@H]2CCN(Cc3ccccc3)[C@H]2C)cc1Cl, the max response is reported as 138%. COCCn1c(=O)c(-c2cccc(Cl)c2)nc2cncnc21 showed a max response of 40.7%. CC(C)[C@H](CO)Nc1nc(Nc2cc(N)cc(Cl)c2)c2ncn(C(C)C)c2n1 showed a max response of 83.2%. Work on COc1cc2c(cc1OC)C(c1ccc(N)cc1)=NNC(=O)C2 yielded a max response of 144%. With CCNc1ncc2nc(-c3cccs3)c(=O)n(Cc3cccc(OC)c3)c2n1 the max response was 29.7%. For COc1ccccc1N1CCN(CCCCNC(=O)c2ccc(-c3ccc(C(C)=O)cc3)cc2)CC1, the max response was 59.8%. CN(C)c1ncc2nc(-c3ccc(Cl)cc3)c(=O)n(C[C@H]3CCCO3)c2n1 showed a max response of 46.8%. O=C(O)c1cc(=O)cc(C(=O)O)[nH]1 gave a max response of 30.3%. Work on COCCn1c(=O)c(-c2cn(C)c3ccccc23)nc2cnc(Oc3ccccc3)nc21 yielded a max response of 17.8%. Compound Cc1cnc(CNc2ncnc3ccc(-c4ccc(N(C)C)cc4)cc23)cn1 has a max response of 31.1%. With COc1ccc(Oc2ncc3nc(C)c(=O)n(-c4ccc(OC)cc4)c3n2)cc1 the max response was 4.52%. Work on CCOC(=O)C1=C(O)C(=O)N(Cc2ccccc2)C1 yielded a max response of 19.5%. N=C(N)SCCc1ccc(OCc2ccc([N+](=O)[O-])cc2)cc1 gave a max response of 66.2%. Work on CNc1nc(-c2c(C)noc2C)nc2ccccc12 yielded a max response of -7.21%. CN1CCN(c2ncc3nc(-c4cn(C)c5ccccc45)c(=O)n(-c4ccccc4)c3n2)CC1 gave a max response of 29.4%. For COc1cccc(Cn2c(=O)c(-c3cccs3)nc3cnc(N4CCOCC4)nc32)c1, the max response was 11.1%. In the case of CN(Cc1ccco1)c1ncncc1-c1cccnc1, the max response is reported as 42.7%. With CNC(=O)[C@H]1O[C@H](n2cnc3c(NCc4cccc(I)c4)ncnc32)[C@@H](O)[C@@H]1O the max response was 80%. CN(C)C/C=C(\c1ccc(Br)cc1)c1cccnc1 showed a max response of 81.3%. C=C1C(=O)OC2C[C@@]3(C)CCCC(=C)[C@@H]3CC12 (some centres not stated) showed a max response of 65.5%. COc1ncc2nc(-c3cc(F)cc(F)c3)c(=O)n(C[C@H]3CCCO3)c2n1 showed a max response of 33.2%. Cc1noc(C)c1-c1ccc2ncnc(NCc3cccs3)c2c1 showed a max response of 3.19%. With COc1ccc(C(=O)N2CCC3(CCN(C(=O)Nc4ccccc4)CC3)CC2)cc1 the max response was 40.7%. COc1ccc(CNc2ccnc(-c3ccc(N(C)C)cc3)n2)c(OC)c1 showed a max response of 24.1%. With CN(C)C(=O)c1ccc(-c2ccc3ncnc(NCCN4CCOCC4)c3c2)cc1 the max response was 41.1%. Compound OCCNCCCOc1cccc(Cl)c1Cl has a max response of -12.7%.
Tags describe the fitted curve by direction and shape.
